This note sets out measurements from PMC6919601, “Identification of Plasmodium dipeptidyl aminopeptidase allosteric inhibitors by high throughput screening” (PLoS ONE, 2019).

Screen size: about 110,000 compounds; about 230 (0.21%) showed an effect of 50% or more. The list shows a part of the results.
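Further: 30 min substrate incubation versus DMSO and 10 µM JCP410 controls.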

The target of this assay is DPAP1 (Plasmodium falciparum, UniProt Q8IIJ9). Description: primary screen, percent inhibition; read by cleavage of a fluorogenic dipeptide substrate; higher = more effect of the substance. More on the design: species or system P. falciparum D10 trophozoite lysates; single well.
Sequence of DPAP1 (Q8IIJ9 whole entry, looked up): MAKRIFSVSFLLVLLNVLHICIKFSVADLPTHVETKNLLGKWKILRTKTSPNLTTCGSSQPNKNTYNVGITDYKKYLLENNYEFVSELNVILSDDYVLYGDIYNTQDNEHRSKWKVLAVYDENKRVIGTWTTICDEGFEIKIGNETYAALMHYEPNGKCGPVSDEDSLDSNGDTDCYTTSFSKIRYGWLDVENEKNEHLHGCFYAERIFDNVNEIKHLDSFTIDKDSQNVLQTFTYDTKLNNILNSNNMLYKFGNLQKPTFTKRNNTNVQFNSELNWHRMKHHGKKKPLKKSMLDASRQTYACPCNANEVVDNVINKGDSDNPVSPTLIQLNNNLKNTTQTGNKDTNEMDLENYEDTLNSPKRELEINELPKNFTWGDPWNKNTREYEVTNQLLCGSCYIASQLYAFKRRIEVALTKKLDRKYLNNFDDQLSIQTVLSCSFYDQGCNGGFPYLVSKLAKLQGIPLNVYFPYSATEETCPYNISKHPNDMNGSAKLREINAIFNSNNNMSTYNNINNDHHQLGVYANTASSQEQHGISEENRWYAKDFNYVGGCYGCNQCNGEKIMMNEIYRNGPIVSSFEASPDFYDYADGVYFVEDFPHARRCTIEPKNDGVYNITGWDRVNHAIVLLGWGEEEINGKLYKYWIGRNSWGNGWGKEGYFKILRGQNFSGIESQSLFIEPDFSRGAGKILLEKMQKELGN
Take `Cc1ccc(S(=O)(=O)N2CCC(C(=O)Nc3ccc(O)cc3)CC2)cc1`: the “% Inhibition @ 10 uM” value is given as -2.37%.
For the compound `O=C(NCCOc1ccccc1)C(=O)c1c[nH]c2ccccc12`, the “% Inhibition @ 10 uM” value is reported as 1.03%.
`COc1cccc(C2C3=C(O)CC(C)(C)CC3=NC(C)=C2C(=O)Nc2cccc(F)c2)c1` (centres unmarked): the “% Inhibition @ 10 uM” value is -4.76%.
For `O=C(NCCN1CCCC1)C1CCC(CNS(=O)(=O)c2ccccc2)CC1` (centres unmarked) the value was -6.4%; for `CCCN1C(=O)C(NC(=O)c2cccnc2)(C(F)(F)F)N=C1c1ccccc1` (centres unmarked), 3.54%; for `C=CCOc1ccc(/C=C2/C(=N)N3C(SC)=NSC3=NC2=O)cc1OC`, 4.79%.
Take `CCOc1ccccc1NC(=O)CN(c1ccc(F)cc1)S(C)(=O)=O`: the “% Inhibition @ 10 uM” value is listed as -1.43%.
As to `CCOc1c(Br)cc(/C=C2N=C(/C=C/c3ccccc3)OC/2=O)cc1OC`, the “% Inhibition @ 10 uM” value stood at 6.42%.
Under `CC1=C(C#N)C(NS(=O)(=O)c2ccccc2)(C(F)(F)F)C(=O)N1` (centres unmarked) stands -3.53%; under `CCOc1ccccc1NC(=O)c1ccc(C)o1`, 2.72%; under `Cc1ccc(Cn2c(=O)c3cccnc3n(Cc3ccc(C)cc3C)c2=O)cc1`, -9.16%.
Under `O=C(Nc1ccccn1)c1sc2cccc(Cl)c2c1Cl` stands 2.15%.
Under `CN(Cc1ccccc1)C(=O)CCn1ccc2cc(S(=O)(=O)N3CCCCC3)ccc21` stands 10.1%; under `Cc1nn(-c2ccc(F)cc2)c(O)c1/C=N/c1cccc(O)c1`, -4.41%.
`O=C(O)c1nn2c(C(F)(F)F)cc(-c3cccs3)nc2c1Cl`: the “% Inhibition @ 10 uM” value is recorded as 3.01%.
For `Cc1nc2ccc(S(=O)(=O)N(C)CC(=O)NC(C)c3ccccc3)cc2s1` (centres unmarked) the value was -4.04%; for `OCCN(CCO)c1ncnc2c1cnn2-c1cccc(Cl)c1`, -3.02%.
Turning to `Cc1nc2c(-c3ccc(F)cc3)c(C)nn2c(C)c1CCC(=O)NCCN1CCOCC1`, the “% Inhibition @ 10 uM” value was 1.05%.
Turning to `Nc1nc2ccccc2n1CCc1ccccc1`, the “% Inhibition @ 10 uM” value came out at 0.472%.
Regarding `Cc1ccccc1Cn1c(=O)n(CC(=O)NCc2ccco2)c(=O)c2sccc21`, the “% Inhibition @ 10 uM” value was found to be 2.4%.
For `CCC[C@H](NC(=O)C1(NC(=O)c2cc3ccccc3s2)CCCCC1)C(=O)c1nc2ccccc2o1` the value was 6.03%.
For `CCOc1ccc2nc(SCC(=O)Nc3ccc(OC)cc3OC)c(C#N)cc2c1` the value was 0.658%.
For `CCOc1ccccc1-c1nnc(CS(=O)(=O)c2ccccc2)o1` the value was 14.8%; for `CC1CCCN(c2nc3c(c(=O)n(C)c(=O)n3C)n2CC(=O)c2ccc(Br)cc2)C1` (centres unmarked), -3.09%; for `O=C(Nc1cccc(-c2nc3ccccc3s2)c1)c1ccco1`, 3.83%.
With `CC1(C)COC(c2ccccc2)c2ccccc21` (centres unmarked), the “% Inhibition @ 10 uM” value is -3.16%.
For `Brc1ccc(Nc2nc3c(s2)CCCC3)cc1` the value was 10.7%.
Under `Cc1cccc(-c2nc3s/c(=C\c4ccccc4F)c(=O)n3n2)c1` stands -4.85%; under `c1ccc(CN2CCN(CCCNc3ccc4nncn4n3)CC2)cc1`, -6.07%.
Consider `CN(C)c1ccc(C2(CC(=O)Nc3ccc(Br)cc3)C(=O)c3ccccc3C2=O)cc1`, for which the “% Inhibition @ 10 uM” value was -1.02%.
Turning to `Cc1ccc(-c2csc(-c3nnn(-c4cccc(Cl)c4)c3N)n2)cc1`, the “% Inhibition @ 10 uM” value is recorded as -2.41%.
For `COc1ccc(CN2CSC3=C(C#N)C(c4ccc(C)cc4)CC(=O)N3C2)cc1` (centres unmarked) the value was 43.8%.
For `COc1ccccc1-c1nn(CCC#N)c2nc(C(F)(F)F)cc(C3CC3)c12` the value was -1.03%; for `O=c1c2c3c(sc2n2c(S)nnc2n1Cc1ccccc1)CN(Cc1ccccc1)CC3`, -3.33%; for `CCOc1ccc(-c2nc(C#N)c(N3CCN(Cc4ccccc4)CC3)o2)cc1`, -3.23%.
Under `CC(=O)N1CCN(C2CCC(c3ccccc3)CC2)CC1` (centres unmarked) stands 1.88%; under `COC(=O)C1=C(C)N=c2s/c(=C/c3ccco3)c(=O)n2C1/C=C/c1ccccc1` (centres unmarked), 9.47%.
Consider `Nc1ccc2c(c1)CC(=O)c1ccccc1S2`, for which the “% Inhibition @ 10 uM” value is -0.231%.
Take `CCCOc1ccc(C2C3=C(O)CCCC3=NC(C)=C2C(=O)Nc2ccccc2OC)cc1` (centres unmarked): the “% Inhibition @ 10 uM” value is recorded as 6.29%.
For `COc1ccc(Cl)c(Cn2c(NCC(C)O)nc3c2c(=O)n(C)c(=O)n3C)c1` (centres unmarked), the “% Inhibition @ 10 uM” value is listed as -3.24%.
For `Cc1cccc(NC(=O)CCCCCN2C(=O)c3ccccc3C2=O)c1` the value was -3.92%; for `COc1ccc(-c2noc(CNC(=O)c3cc(OC)c(OC)cc3OC)n2)cc1`, 0.276%; for `CCO/C(O)=C1/C(C)=NC2=C(C(=O)CCC2)C1c1ccc(C(=O)OC)cc1` (centres unmarked), -6.74%.
For `COc1ccc2[nH]c(C(=O)O)cc2c1` the value was 3.66%; for `CCc1ccc(C2CC(c3cccc(OC)c3)n3nc(N)nc3N2)cc1` (centres unmarked), -7.38%.
For `CC(=O)N1CCC(N(Cc2ccco2)C(=O)NC23CC4CC(CC(C4)C2)C3)CC1` the value was -0.35%; for `COc1cccc(-c2cc(N)n(S(=O)(=O)Cc3ccccc3)n2)c1`, 5.77%; for `COC(=O)C(Cc1ccccc1)NC(=O)C(C)(C)C` (centres unmarked), -1.74%.
For `COCCNS(=O)(=O)c1ccc2[nH]c(O)nc2c1`, the “% Inhibition @ 10 uM” value stood at 2.42%.
Under `COc1ccc2nc(N3C(=O)C(O)=C(C(=O)c4cc5ccccc5o4)C3c3ccc(C)o3)sc2c1` (centres unmarked) stands 5.3%.
For `Clc1ccccc1C1C=C(c2cccnc2)Nc2ncnn21` (centres unmarked) the value was 1.73%; for `CCCc1nc(SC)ncc1C(=O)NC(C)C12CC3CC(CC(C3)C1)C2` (centres unmarked), 0.107%; for `Cc1sc2c(c1C)CN(Cc1ccco1)CN2C(=O)c1ccccc1`, -7.15%.
For `COc1ccc(CC(=O)NCc2cn3cccc(C)c3n2)cc1` the value was -1.72%; for `CC(C(=O)N1CCN(c2ccccn2)CC1)n1ccc2cc(S(=O)(=O)N3CCCCCC3)ccc21` (centres unmarked), -0.846%.
Turning to `O=C(NCc1ccco1)c1cnn2c3c(cnc12)CCCCC3`, the “% Inhibition @ 10 uM” value was found to be 2.82%.
For `CN(C)CCCN1C(=O)CSC1c1ccc(Cl)cc1` (centres unmarked) the value was -3.44%; for `CCOc1ccc(CCNC(=O)C2CCCN(S(=O)(=O)c3c(C)n[nH]c3C)C2)cc1OCC` (centres unmarked), 2.39%; for `COc1ccccc1CNC(=O)CCc1nc2cccnc2n1Cc1cccs1`, 1.62%.
For `CCC(Cc1ccccc1)NC(=O)CN(C)S(=O)(=O)c1ccc2nc(C)sc2c1` (centres unmarked) the value was -2.25%.
For `O=C(Nc1ncccn1)c1cc(-c2cccc(Br)c2)nc2ccccc12` the value was -2.19%.
Take `Oc1cc(-c2ccccc2)nc(S)n1`: the “% Inhibition @ 10 uM” value is 3.16%.
